# Where “and” joins values, the source holds several entries; their conditions need not be identical. Identical values can stand only once. The whole screen tested about 330,000 compounds, of which about 300 (0.091%) were called active. Inconclusive results, whose numbers are uncertain, are shown with a selection of clear calls. Calls follow the shape of the dose curve; as a rule, active = well fitted inhibition curve with a large enough effect; inconclusive = small, poorly fitted or top-dose-only effect, or effect the other way, or another doubt; inactive = no such curve, though single readings can be large or run the other way. No potency is given beside an inconclusive call; the fits are too rough. A structure can be active in one record and inactive in another.
# Target: Lysosomal acid glucosylceramidase (Homo sapiens) (UniProt P04062)
# Assay: qHTS Assay for Inhibitors and Activators of N370S glucocerebrosidase as a Potential Chaperone Treatment of Gaucher Disease;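 as to activity change, negative = inhibition: 0% = full enzyme activity and -100% = no enzyme basal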
# Details: N370S GC spleen homogenate, 4MU-glucoside fluorescence; activity change, negative = inhibition: at 59.4 µM (top of the series) unless noted
# Potency is read from the fitted curve at half-maximal effect.
SMILES,Potency,"activity change, negative = inhibition"
CCOC(=O)C1CCCN(/C=C2\SC(=S)N(CC)C2=O)C1 (stereo not given),"inconclusive [activator, partial curve, poor fit]",–
Nc1nnc(SCCOc2ccc(Br)cc2)s1,inactive,–
O=C(/C=C/c1ccc(O)cc1)c1ccc(O)cc1O,inactive and active: 1.78 µM,–
COc1ccc(CNc2oc(-c3ccccc3)nc2C#N)cc1,inactive,–
Cc1nc(Nc2ccc(Cl)cc2Cl)sc1C(=O)Nc1ccccc1,"inconclusive [activator, partial curve]",–
COC(CNC(=O)c1cc(C(=O)c2c(-c3c(Cl)cccc3Cl)noc2C)c[nH]1)OC,–,inconclusive: 32.2% [activator]
COc1ccc(NC(C)c2cc(Cl)ccc2O)cc1 (stereo not given),"inconclusive [inhibitor, single point]",–
Cc1cc(C)c(C(=O)OCc2csc(CC(=O)Nc3ccccc3C)n2)c(C)c1,"inconclusive [activator, single point]",–
CCNc1nc(NC(C)C)nc(N(C#N)CCOc2ccc(Cl)cc2Cl)n1,"inconclusive [activator, partial curve]",–
Cc1ccc(S(=O)(=O)Nc2ccc(C(=O)N3CCN(c4ccccc4O)CC3)cc2)cc1[N+](=O)[O-],"inconclusive [inhibitor, partial curve]",–
CCOc1ccc(Cl)cc1S(=O)(=O)n1cnc2cc(C)c(C)cc21,"inconclusive [activator, single point]",–
CCCc1cc(NCCCN(C)C)n2c(nc3ccccc32)c1C#N,"inconclusive [activator, partial curve]",–
CCN(CC)Cc1c(O)ccc2cc(-c3nc4ccccc4n3C)c(=O)oc12,"inconclusive [activator, partial curve]",–
CC(NC(=O)c1ccc2ccccc2n1)c1ccccc1 (stereo not given),"inconclusive [activator, partial curve]",–
COc1ccccc1OCC(=O)Nc1cccc(-c2nc3ccccc3o2)c1,"inconclusive [activator, partial curve]",–
CCN1CCCc2cc(CN(CCN3CCOCC3)C(=S)Nc3ccc(OC)c(OC)c3)ccc21,inactive,–
CC1(C)CC(=O)C2=C(C1)N(c1ccccc1C#N)C(N)=C(C#N)C2c1cccs1 (stereo not given),"inconclusive [activator, partial curve]",–
CCOc1ccccc1-c1nnc(SCC(=O)Nc2ccccc2)o1,"inconclusive [activator, single point]",–
COCCOC(=O)C1=C(C)NC2=C(C(=O)CC(C)(C)C2)C1c1cccnc1 (stereo not given),"inconclusive [activator, single point]",–
CC(OC(=O)c1ccc2ncsc2c1)C(=O)Nc1ncc(Cl)cc1Cl (stereo not given),inactive,–
CC1N(C)c2cccc3cccc(c23)N1C,inactive,–
Oc1ccc(/C=N/NC(=S)Nc2cccnc2)cc1,inactive,–
O=c1[nH]c(CN2CCN(CCO)CC2)nc2ccccc12,inactive,–

SMILES,Potency,"activity change, negative = inhibition"
COc1ccc(C2=NN(CCC(=O)NC3CCC(C)CC3)C(=O)CC2)cc1 (stereo not given),"inconclusive [inhibitor, single point]",–
O=C(N/N=C/c1cccnc1)c1ccc2ccccc2c1O,"inconclusive [inhibitor, partial curve, poor fit]",–
CCSc1nc2c(c(-c3ccc(C)o3)c1C#N)CCCC2,inactive,–
COc1cc(OC)cc(C(=O)N[C@H](C(=O)OCC(=O)Nc2ccc(F)c(F)c2F)C(C)C)c1,"inconclusive [activator, partial curve]",–
CC(C)=CCc1c(O)ccc2c1OC(c1ccc(O)c(O)c1)CC2=O (stereo not given),inactive,–
CCN(CC)CCCNC(=O)c1cc2c(=O)[nH]c3ccc(C)cc3c2s1,"inconclusive [activator, partial curve]",–
N#C/C(=C/c1cccc(C(F)(F)F)c1)c1nc(CCN2C(=O)c3ccccc3C2=O)cs1,"inconclusive [inhibitor, single point]",–
CC1CCC(C(C)C)C(P(=O)(c2ccccc2)c2ccccc2)C1 (stereo not given),inactive,–
COc1ccc(S(=O)(=O)NC(CC(=O)NC2CCCC2)c2ccco2)cc1 (stereo not given),inactive,–
CC1=C(C(=O)OC(C)C)C(c2cccs2)NC(=S)N1 (stereo not given),"inconclusive [inhibitor, single point]",–
CCc1ccc(NC(=O)CN2C(=O)CC(C)S(=O)(=O)c3ccccc32)cc1 (stereo not given),"inconclusive [activator, partial curve]",–
N#Cc1nc(-c2ccccc2)oc1N1CCN(C(=O)c2ccco2)CC1,"inconclusive [activator, single point]",–
CC(=O)c1c(C)[nH]c(C(=O)NCCc2ccccc2)c1C,inactive,–
CCNc1ncc2nc(-c3ccccc3)c(=O)n(CCC#N)c2n1,"inconclusive [activator, partial curve]",–
O=C(CSC(=S)N1CCCC1)Nc1ccc(Br)cc1Cl,"inconclusive [activator, single point]",–
CCn1c(=O)c2sccc2n2c(CCCC(=O)NC3CCN(Cc4ccccc4)CC3)nnc12,"inconclusive [inhibitor, single point]",–
O=C(CSc1nccc(-c2cccs2)n1)Nc1ccc(F)c(Cl)c1,"inconclusive [activator, partial curve]",–
CC1CCCCN1CCNC(=O)c1ccc2c(c1)N(Cc1ccccc1F)C(=O)c1ccccc1S2=O (stereo not given),"inconclusive [inhibitor, partial curve, poor fit]",–
CC1=CC=CC2=NC(=O)CC(C)(C(=O)N(CC(=O)NC3CCCC3)c3ccccc3C)N12 (stereo not given),"inconclusive [activator, partial curve]",–
COc1ccc(-c2csc(N(C)C(=O)c3cccs3)n2)cc1,inactive,–
O=C(CSc1nc(O)c(Cc2ccccc2)c(=O)[nH]1)Nc1ccccc1,"inconclusive [activator, partial curve]",–
Cc1c(CC(=O)N[C@@H](CCCNC(N)=O)C(=O)O)c(=O)oc2cc3oc4c(c3cc12)CCCC4,"inconclusive [activator, partial curve]",–

# — PubChem BioAssay AID2101 (National Center for Advancing Translational Sciences (NCATS), 2009)
